Measurements published in article PMC12820563.
The other results are listed elsewhere or left out. The list includes weakly bound sequences.

The sequences below were run against T1, MBP-FoxP3dN (UniProt Q99JB6) (assay: PD-seq (MBP pull-down with sequencing)). Conditions: 20 mM Tris-HCl pH 7.5, 100 mM NaCl, 1.5 mM MgCl2, 0.4 uM protein, 0.1 uM dsDNA library, 30 min, room temperature, amylose pull-down; high values mean tight binding; double strand, one strand shown.
T1 sequence: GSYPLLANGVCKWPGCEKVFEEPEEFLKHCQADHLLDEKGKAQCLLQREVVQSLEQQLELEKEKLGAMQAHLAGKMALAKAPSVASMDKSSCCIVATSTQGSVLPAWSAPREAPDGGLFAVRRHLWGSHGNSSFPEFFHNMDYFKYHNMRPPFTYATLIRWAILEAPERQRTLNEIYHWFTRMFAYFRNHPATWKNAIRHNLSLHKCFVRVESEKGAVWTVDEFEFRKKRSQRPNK

Row | Sequence | binding signal (RPM ratio (pull-down/input))
1 | GATGATTGTTCTCCCAGCTGATGAATTAATACCCTCGAGTAAACAAATTTTCCTAATCTTTCTGTTCAAGCGCCATCTAC | 0.406
2 | GATGATTGTTCTCCCAGCTGATGAATTTGTGCACTCGAGTAAACAAATTTTCCTAATCTTTCTGTTCAAGCGCCATCTAC | 2.89
3 | GATGATTGTTCTCCCAGCTGATGAATTCGGTTACTCGAGTAAACAAATTTTCCTAATCTTTCTGTTCAAGCGCCATCTAC | 1.67
4 | GATGATTGTTCTCCCAGCTGATGAATTATCGCTCTCGAGTAAACAAATTTTCCTAATCTTTCTGTTCAAGCGCCATCTAC | 0.468
5 | GATGATTGTTCTCCCAGCTGATGAATTCCGTGTTTCGAGTAAACAAATTTTCCTAATCTTTCTGTTCAAGCGCCATCTAC | 1.28
6 | GATGATTGTTCTCCCAGCTGATGAATTTCAGACCTCGAGTAAACAAATTTTCCTAATCTTTCTGTTCAAGCGCCATCTAC | 0.225
7 | GATGATTGTTCTCCCAGCTGATGAATTTGAACACTCGAGTAAACAAATTTTCCTAATCTTTCTGTTCAAGCGCCATCTAC | 0.453
8 | GATGATTGTTCTCCCAGCTGATGAATTAGTCCCGTCGAGTAAACAAATTTTCCTAATCTTTCTGTTCAAGCGCCATCTAC | 0.495
9 | GATGATTGTTCTCCCAGCTGATGAATTAGGTCTCTCGAGTAAACAAATTTTCCTAATCTTTCTGTTCAAGCGCCATCTAC | 0.546
10 | GATGATTGTTCTCCCAGCTGATGAATTATGCCCGTCGAGTAAACAAATTTTCCTAATCTTTCTGTTCAAGCGCCATCTAC | 2.85
11 | GATGATTGTTCTCCCAGCTGATGAATTAAAATTTTCGAGTAAACAAATTTTCCTAATCTTTCTGTTCAAGCGCCATCTAC | 0.263
12 | GATGATTGTTCTCCCAGCTGATGAATTAGGTCTTTCGAGTAAACAAATTTTCCTAATCTTTCTGTTCAAGCGCCATCTAC | 0.452
13 | GATGATTGTTCTCCCAGCTGATGAATTCGCCGGATCGAGTAAACAAATTTTCCTAATCTTTCTGTTCAAGCGCCATCTAC | 0.188
14 | GATGATTGTTCTCCCAGCTGATGAATTACCTGGGTCGAGTAAACAAATTTTCCTAATCTTTCTGTTCAAGCGCCATCTAC | 0.183
15 | GATGATTGTTCTCCCAGCTGATGAATTGAGGCAGTCGAGTAAACAAATTTTCCTAATCTTTCTGTTCAAGCGCCATCTAC | 0.733
16 | GATGATTGTTCTCCCAGCTGATGAATTCTATTAGTCGAGTAAACAAATTTTCCTAATCTTTCTGTTCAAGCGCCATCTAC | 3.45

Row | Sequence | binding signal (RPM ratio (pull-down/input))
17 | GATGATTGTTCTCCCAGCTGATGAATTGTTGCCATCGAGTAAACAAATTTTCCTAATCTTTCTGTTCAAGCGCCATCTAC | 4.23
18 | GATGATTGTTCTCCCAGCTGATGAATTGTTCGGATCGAGTAAACAAATTTTCCTAATCTTTCTGTTCAAGCGCCATCTAC | 0.3
19 | GATGATTGTTCTCCCAGCTGATGAATTATTTAGGTCGAGTAAACAAATTTTCCTAATCTTTCTGTTCAAGCGCCATCTAC | 1.1
20 | GATGATTGTTCTCCCAGCTGATGAATTTCCAAACTCGAGTAAACAAATTTTCCTAATCTTTCTGTTCAAGCGCCATCTAC | 0.212
21 | GATGATTGTTCTCCCAGCTGATGAATTCGTGTACTCGAGTAAACAAATTTTCCTAATCTTTCTGTTCAAGCGCCATCTAC | 3.23
22 | GATGATTGTTCTCCCAGCTGATGAATTGGGAGCCTCGAGTAAACAAATTTTCCTAATCTTTCTGTTCAAGCGCCATCTAC | 0.446
23 | GATGATTGTTCTCCCAGCTGATGAATTGGACAGCTCGAGTAAACAAATTTTCCTAATCTTTCTGTTCAAGCGCCATCTAC | 0.259
24 | GATGATTGTTCTCCCAGCTGATGAATTAAGCTCATCGAGTAAACAAATTTTCCTAATCTTTCTGTTCAAGCGCCATCTAC | 0.419
25 | GATGATTGTTCTCCCAGCTGATGAATTATGTCGTTCGAGTAAACAAATTTTCCTAATCTTTCTGTTCAAGCGCCATCTAC | 2.7
26 | GATGATTGTTCTCCCAGCTGATGAATTTTACACGTCGAGTAAACAAATTTTCCTAATCTTTCTGTTCAAGCGCCATCTAC | 0.344
27 | GATGATTGTTCTCCCAGCTGATGAATTTCTTTGCTCGAGTAAACAAATTTTCCTAATCTTTCTGTTCAAGCGCCATCTAC | 1.5
28 | GATGATTGTTCTCCCAGCTGATGAATTAGACGACTCGAGTAAACAAATTTTCCTAATCTTTCTGTTCAAGCGCCATCTAC | 0.3
29 | GATGATTGTTCTCCCAGCTGATGAATTGTTTAGTTCGAGTAAACAAATTTTCCTAATCTTTCTGTTCAAGCGCCATCTAC | 3.84
30 | GATGATTGTTCTCCCAGCTGATGAATTCTGCAACTCGAGTAAACAAATTTTCCTAATCTTTCTGTTCAAGCGCCATCTAC | 5.96
31 | GATGATTGTTCTCCCAGCTGATGAATTGGCCTAGTCGAGTAAACAAATTTTCCTAATCTTTCTGTTCAAGCGCCATCTAC | 0.259
32 | GATGATTGTTCTCCCAGCTGATGAATTCTCTCGTTCGAGTAAACAAATTTTCCTAATCTTTCTGTTCAAGCGCCATCTAC | 0.288
